In publication PMC4336329 (PLoS ONE, 2015):
Out of some 310,000 compounds screened, about 14,000 (4.5%) showed an effect of 50% or more. Effects have a minus sign here. Some of the results follow.

Biological target: human ether-à-go-go-related gene (hERG) potassium channel (human, UniProt Q12809)
Experiment: primary screen, population patch clamp on CHO cells stably expressing hERG
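Note: peak tail current of the secondary pulse compared with the same well before compound.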

human ether-à-go-go-related gene (hERG) potassium channel, sequence (Q12809 whole entry, looked up): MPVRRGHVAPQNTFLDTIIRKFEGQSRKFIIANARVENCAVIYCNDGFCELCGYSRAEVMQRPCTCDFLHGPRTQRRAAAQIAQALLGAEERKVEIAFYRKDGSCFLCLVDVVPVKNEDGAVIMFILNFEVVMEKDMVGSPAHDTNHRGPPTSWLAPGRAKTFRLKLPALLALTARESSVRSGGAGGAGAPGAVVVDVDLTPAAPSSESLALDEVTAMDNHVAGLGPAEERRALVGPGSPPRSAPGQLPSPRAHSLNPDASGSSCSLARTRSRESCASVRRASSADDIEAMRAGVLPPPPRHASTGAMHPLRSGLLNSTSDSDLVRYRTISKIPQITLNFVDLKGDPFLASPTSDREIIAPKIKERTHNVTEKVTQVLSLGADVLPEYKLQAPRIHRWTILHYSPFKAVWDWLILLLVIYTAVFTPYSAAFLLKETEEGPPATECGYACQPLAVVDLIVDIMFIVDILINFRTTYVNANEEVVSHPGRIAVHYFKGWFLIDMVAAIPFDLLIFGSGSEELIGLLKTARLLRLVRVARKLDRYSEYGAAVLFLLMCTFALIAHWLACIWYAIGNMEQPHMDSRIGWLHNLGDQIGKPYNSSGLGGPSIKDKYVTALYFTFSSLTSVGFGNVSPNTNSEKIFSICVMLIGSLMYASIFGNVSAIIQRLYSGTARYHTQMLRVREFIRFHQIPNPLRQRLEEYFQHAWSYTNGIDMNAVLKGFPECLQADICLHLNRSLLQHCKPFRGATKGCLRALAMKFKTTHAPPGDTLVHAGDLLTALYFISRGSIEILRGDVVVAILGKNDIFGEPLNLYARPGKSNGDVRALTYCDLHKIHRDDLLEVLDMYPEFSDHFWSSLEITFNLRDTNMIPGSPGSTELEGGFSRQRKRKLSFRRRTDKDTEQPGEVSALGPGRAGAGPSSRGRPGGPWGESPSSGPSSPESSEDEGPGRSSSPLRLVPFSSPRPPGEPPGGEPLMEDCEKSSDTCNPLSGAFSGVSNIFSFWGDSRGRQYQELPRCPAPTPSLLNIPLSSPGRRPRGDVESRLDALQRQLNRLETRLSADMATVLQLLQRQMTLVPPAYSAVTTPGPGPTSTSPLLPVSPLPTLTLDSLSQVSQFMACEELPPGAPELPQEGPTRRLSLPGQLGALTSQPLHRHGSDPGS

| Compound | hERG current change (%, negative = inhibition) at 10uM |
| --- | --- |
| CC(C)Cc1nnc(NC(=O)CN2C(=O)NC3(CCCCC3)C2=O)s1 | -3.83% |
| O=C(O)c1ccc(N/N=C/c2ccc(F)c(F)c2)cc1.O=S(=O)(O)O | 12.5% |
| COC(=O)c1cccc(S(=O)(=O)N2CCN(c3nc4ccccc4s3)CC2)c1 | 11.5% |
| C/C(=N\NC(=O)c1cc(C(C)(C)C)[nH]n1)C12CC3CC(CC(C3)C1)C2 | -14.5% |
| Cc1sc2nc(C)n(/N=C/N(C)C)c(=O)c2c1C | 1.6% |
| C/C(=N\OCC(=O)Nc1c(C)cc(C)cc1C)c1ccc2c(c1)OCCO2 | 6.27% |
| COc1cccc(N2CCN(C(=O)C3CCC(=O)N(C4CCCCCC4)C3)CC2)c1 (centres unmarked) | -32.8% |
| N#Cc1cc2c([nH]c1=S)CCCC2 | 11.8% |
| CSCC[C@H](NC(=O)OC(C)(C)C)C(=O)N/N=C/c1ccc2nccnc2c1 | -4.92% |
| C=CCNC(=S)/C(=C(\[O-])c1ccc(Cl)cc1)[n+]1ccccc1 | -7.93% |
| CCOC(=O)Cn1c(=O)oc2cc(S(=O)(=O)N(C)Cc3ccccc3)ccc21 | 5.24% |
| CCCNC(=O)NCCC12CC3CC(CC(C3)C1)C2 | 6.43% |
| COCCNC(=O)c1cc2cc(Br)cc(OC)c2oc1=O | -5.69% |
| O=C(Cc1cccs1)N1CCN(S(=O)(=O)c2ccc(Cl)c(C(F)(F)F)c2)CC1 | -13.5% |
| O=C1C(Cc2c[nH]c3ccccc23)NC(=S)N1Cc1ccccc1 (centres unmarked) | -9.4% |
| Nc1c(-c2ccccc2)cnn1-c1cccc([N+](=O)[O-])c1 | 3.29% |
| CCN(CC(=O)Nc1ccc(NC(C)=O)cc1)C(=O)c1cc2c(s1)CCCC2 | 0.233% |
| CC1(C)CC(=O)C=C(Nc2ccc(Cl)c(Br)c2)C1 | -18.8% |
| COc1ccc(C2CC(c3ccc(C)cc3)=NN2C(=O)CCC(=O)O)cc1OC (centres unmarked) | 1.69% |
| O=C(NCCCNC(=O)c1ccccn1)c1ccc(Br)cc1 | 7.28% |
| CCC1Oc2ccc(C)cc2N(CC(=O)NC2CCCCC2)C1=O (centres unmarked) | 5.8% |
| CCOc1ccc(C(=O)Nc2cc3c(cc2N2CCCC2)n(CC)c(=O)n3CC)cc1OCC | 5.16% |
| O=S(=O)(NCCCN1CCOCC1)c1ccc(Cl)cc1 | 19.3% |

| Compound | hERG current change (%, negative = inhibition) at 10uM |
| --- | --- |
| COc1ccc(/C=C2/Sc3ccc(C(=O)NCCCN4CCOCC4)cc3NC2=O)cc1OC | 6.64% |
| O=C(OCc1nnc(-c2cccs2)o1)C1=NN(c2ccccc2)C(=O)CC1 | 1.68% |
| O=C1C(Nc2ccccc2)=C2CCCC=C2N1c1ccccc1 | 17.5% |
| CN(c1ccccc1)S(=O)(=O)c1ccc(NC(=O)c2ccc(-c3ccccc3)cc2)cc1 | 1.75% |
| CCOC(=O)C1CCN(S(=O)(=O)c2c(C)noc2C)CC1 | -37.9% |
| CCn1c2ccccc2c2cc(NC(=O)C(=O)N3CCOCC3)ccc21 | 10.1% |
| COc1ccc(NCc2nnc(SCC(=O)NCc3ccccc3)n2-c2ccccc2OC)cc1 | -14.2% |
| CC1=NN(S(=O)(=O)c2ccc(F)cc2)C(=O)c2ccccc2O1 | 1.11% |
| O=C(O)CSC(C(=O)Nc1ccc(Br)cc1)c1ccccc1 (centres unmarked) | 6.45% |
| Cc1cc2oc(C(=O)Nc3ccc(S(=O)(=O)N4CCCC(C)C4)cc3)cc(=O)c2cc1Cl (centres unmarked) | 1.67% |
| CS(=O)(=O)N(CC(=O)Nc1ccc(S(=O)(=O)N2CCOCC2)cc1)c1ccccc1Br | 13.4% |
| Cc1cccc(N2CCN(C(=O)CCCCCn3c(=S)[nH]c4ccc(N5CCOCC5)cc4c3=O)CC2)c1C | 28.7% |
| COc1ccc(OC)c(CN(CCN2CCOCC2)S(=O)(=O)c2ccc(NC(C)=O)cc2)c1 | -4.48% |
| O=C(CSc1nccc(-c2cccs2)n1)Nc1ccc(Cl)cc1 | 9.4% |
| COc1ccc(C(NC(=O)/C=C/c2ccco2)c2ccc(OC)c(OC)c2)cc1OC | 4.98% |
| Cn1c(C(=O)Nc2ccc3c(c2)OCCO3)cc2sccc21 | -8.38% |
| O=C(N1CCOCC1)N1CCN(c2ccccn2)CC1 | 4.74% |
| Cc1cc(C(=O)N2CCC(Cc3ccccc3)CC2)c(C)o1 | -29.7% |
| O=C(Nc1cccc(Cl)c1)c1cncn1-c1ccc(F)cc1 | -68.1% |
| O=C(Nc1ccc(F)cc1)C1CCCN1S(=O)(=O)c1ccc(Br)cc1 (centres unmarked) | 8.27% |
| Cc1ccc(S(=O)(=O)N2CCN(c3ncccn3)CC2)cc1C | 13.9% |
| Cc1ccc(O)c(C(CC(=O)NCc2cccnc2)c2ccccc2)c1 (centres unmarked) | -7.21% |
| CC(=O)c1ccc2cccc3c2c1N=CN3C | -2.94% |

| Compound | hERG current change (%, negative = inhibition) at 10uM |
| --- | --- |
| O=[N+]([O-])c1ccc(N/N=C/c2cn(-c3ccccc3)nc2-c2ccccc2)cc1 | 21.9% |
| CN(C)S(=O)(=O)c1cccc(C(=O)Nc2ccccc2Cl)c1 | 0.87% |
| COc1cccc(CNc2ccc(S(N)(=O)=O)cc2)c1OCc1ccccc1F | -3.75% |
| Cn1c(SCC(=O)NCc2ccc(F)cc2)ncc(C(=O)Nc2ccccc2)c1=O | -10.1% |
| CS(=O)(=O)O.Nc1ncnc2c1ncn2C1CCCC1 | -16% |
| O=C(NC1CCN(C(=S)NCCc2ccccc2)CC1)C1CCCCC1 | 3.67% |
| Cc1ccc(-c2n[nH]c3c2CCC3)cc1 | -0.775% |
| Nc1ccc2c(c1)sc1ccccc12 | 7.37% |
| CCOC(=O)CC/C(C)=N\N=C1\SC(CC(=O)O)C(=O)N1c1ccccc1 (centres unmarked) | 4.21% |
| C/C(=N\N=C\c1ccccc1)c1nnn(-c2nonc2N)c1C | 7.82% |
| CCCC(=O)NCC(c1cccs1)S(=O)(=O)c1ccc(C)cc1 (centres unmarked) | 9.55% |
| Cc1cc(Br)ccc1NC(=O)CN(C)C(=O)c1ccc2ccccc2n1 | -32.9% |
| Cc1ccc(-c2cn3cc([N+](=O)[O-])ccc3n2)cc1 | -10.1% |
| CC(=O)c1cccc(NC(=O)C(OC(=O)/C=C/c2ccc3c(c2)OCO3)c2ccccc2)c1 (centres unmarked) | -4.68% |
| O=c1ccc2cc(S(=O)(=O)NCc3ccccc3)ccc2[nH]1 | 4.76% |
| Cc1c(Cl)cccc1NC(=O)[C@@]1(CC(=O)O)CC(/C=C/c2ccccc2)=NO1 | 10.5% |
| COc1cc(/C=C/C(=O)O)cc(S(=O)(=O)Nc2cccc(SC)c2)c1OC | 23.1% |
| CCCCNS(=O)(=O)c1ccc(S(=O)(=O)NCc2ccncc2)cc1 | -9.06% |
| COc1ccc(S(=O)(=O)N2CCC(C(=O)N3CCCCCC3)CC2)cc1 | -3.04% |
| c1cc2nnnn2nc1N1CCCCC1 | 1.35% |
| CC1CCCC(C)N1C(=O)COC(=O)c1ccc[nH]c1=O (centres unmarked) | 3.02% |
| S=c1[nH]nc(C2CCCCC2)n1Cc1ccccc1 | -23.1% |
| O=C(CNC(=O)c1ccccc1)NCC(=O)OCC(=O)c1ccc([N+](=O)[O-])cc1 | 8.63% |

| Compound | hERG current change (%, negative = inhibition) at 10uM |
| --- | --- |
| CC1(C)CN(c2ccc(C(=O)c3ccccc3)cc2)C1=O | -0.622% |
| Cc1ccccc1-n1c(-c2ccco2)n[nH]c1=S | 22.2% |
| Cc1noc(C)c1COc1cccc(C(=O)OCCOc2ccc(F)cc2)c1 | 1.22% |
| O=C(Nc1ccccc1F)C(c1ccccc1)c1ccccc1 | 7.77% |
| Cc1cc(C)cc(NC(=O)COC(=O)c2cc(C)oc2C)c1 | 7.5% |
| Cc1ccc(NC(=O)C2CCN(c3ncnc4c3nc3n4CCCCC3)CC2)cc1Cl | 3.4% |
| COc1ccc(-n2c(C)cc(SC)c(C(C)=O)c2=S)cc1 | -10.9% |
| Br.CN(CC(O)C[NH+]1CCOCC1)S(=O)(=O)[O-] (centres unmarked) | 17% |
| Cc1nnc(SCC(=O)Nc2ccc(S(=O)(=O)N3CCCC3)cc2)n1N | 13% |
| COC(=O)c1cc(=O)c2cccc(OC)c2[nH]1 | -0.0736% |
| Cc1ccc(C(=O)NNC(=O)c2cccs2)cc1 | 14.1% |
| Cc1noc(C)c1C(=O)N(CC(=O)Nc1ccc(Cl)c(C(F)(F)F)c1)Cc1ccco1 | 2.01% |
| COc1ccc2oc(C(=O)OCC(=O)Nc3ccc(NC(C)=O)cc3)c(C)c2c1 | 19.6% |
| CCn1c(SCC(=O)Nc2nccs2)nnc1-c1ccc(S(=O)(=O)N2CCCCCC2)cc1 | -11.6% |
| O=C(Nc1ccc(Br)c2cccnc12)c1ccc(Cn2cc([N+](=O)[O-])cn2)o1 | -0.0567% |
| COc1cc(N/N=C/c2ccc(N(C)C)cc2)ncn1 | 12.9% |
| Cn1c(=O)[nH]c(=O)c2c1nc(N1CCCCC1)n2CCSc1nc2ccccc2o1 | 11.1% |
| Cc1cc(=O)n2ccsc2n1 | 3.28% |
| O=C1COc2ccc(S(=O)(=O)N3CCCCCC3)cc2N1 | 9.98% |
| COCc1nc2ccccc2n1Cc1ccccc1C | 1.2% |
